{
  "source": "paper PMC12820563",
  "about": "“FoxP3 forms a head-to-head dimer in vivo and stabilizes its multimerization on adjacent microsatellites”",
  "note": "This is one part of the list.",
  "data": [
    {"target": "T1, MBP-FoxP1dN (Mus musculus, UniProt P58462 326-579)", "T1 sequence": "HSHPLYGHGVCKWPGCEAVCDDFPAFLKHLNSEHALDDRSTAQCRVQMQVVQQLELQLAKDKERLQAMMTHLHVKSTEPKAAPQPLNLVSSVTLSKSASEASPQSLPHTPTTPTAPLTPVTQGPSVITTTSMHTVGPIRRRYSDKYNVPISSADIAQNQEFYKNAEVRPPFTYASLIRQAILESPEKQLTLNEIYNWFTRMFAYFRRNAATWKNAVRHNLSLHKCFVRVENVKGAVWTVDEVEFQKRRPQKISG", "assay": "PD-seq (MBP pull-down with sequencing); 20 mM Tris-HCl pH 7.5, 100 mM NaCl, 1.5 mM MgCl2, 0.4 uM protein, 0.1 uM dsDNA library, 30 min, room temperature, amylose pull-down; high values mean tight binding", "conditions": "protein: recombinant; tags: His6-MBP; chain copies: 2; dsDNA, one strand shown", "method_in_brief": "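E. coli-expressed mouse FoxP3 or FoxP1 fragment, N-terminus removed and tagged with His6-MBP, was used at 0.4 µM against 0.1 µM of a Klenow-filled degenerate double-stranded DNA library. After 30 min at room temperature in Tris pH 7.5 buffer with NaCl and MgCl2, complexes were pulled down on amylose resin and washed three times. Binding is pull-down over input reads-per-million enrichment from pooled replicates of the proteinase K-released, PCR-barcoded, Illumina-sequenced DNA.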", "values": [
      {"sequence": "GATGATTGTTCTCCCAGCTGATGAATTCGTAATATCGAGTAAACAAATTTTCCTAATCTTTCTGTTCAAGCGCCATCTAC", "binding signal": "1.1 RPM ratio (pull-down/input)"},
      {"sequence": "GATGATTGTTCTCCCAGCTGATGAATTACGAATTTCGAGTAAACAAATTTTCCTAATCTTTCTGTTCAAGCGCCATCTAC", "binding signal": "1.09 RPM ratio (pull-down/input)"},
      {"sequence": "GATGATTGTTCTCCCAGCTGATGAATTTAATTGGTCGAGTAAACAAATTTTCCTAATCTTTCTGTTCAAGCGCCATCTAC", "binding signal": "1.03 RPM ratio (pull-down/input)"},
      {"sequence": "GATGATTGTTCTCCCAGCTGATGAATTCGTCCAGTCGAGTAAACAAATTTTCCTAATCTTTCTGTTCAAGCGCCATCTAC", "binding signal": "0.801 RPM ratio (pull-down/input)"},
      {"sequence": "GATGATTGTTCTCCCAGCTGATGAATTTACCGCATCGAGTAAACAAATTTTCCTAATCTTTCTGTTCAAGCGCCATCTAC", "binding signal": "1.41 RPM ratio (pull-down/input)"},
      {"sequence": "GATGATTGTTCTCCCAGCTGATGAATTGTGAAGTTCGAGTAAACAAATTTTCCTAATCTTTCTGTTCAAGCGCCATCTAC", "binding signal": "1.04 RPM ratio (pull-down/input)"},
      {"sequence": "GATGATTGTTCTCCCAGCTGATGAATTTTTACTCTCGAGTAAACAAATTTTCCTAATCTTTCTGTTCAAGCGCCATCTAC", "binding signal": "0.794 RPM ratio (pull-down/input)"},
      {"sequence": "GATGATTGTTCTCCCAGCTGATGAATTCGGACTTTCGAGTAAACAAATTTTCCTAATCTTTCTGTTCAAGCGCCATCTAC", "binding signal": "0.904 RPM ratio (pull-down/input)"},
      {"sequence": "GATGATTGTTCTCCCAGCTGATGAATTTGTTGTCTCGAGTAAACAAATTTTCCTAATCTTTCTGTTCAAGCGCCATCTAC", "binding signal": "2.42 RPM ratio (pull-down/input)"},
      {"sequence": "GATGATTGTTCTCCCAGCTGATGAATTGGGGAACTCGAGTAAACAAATTTTCCTAATCTTTCTGTTCAAGCGCCATCTAC", "binding signal": "0.756 RPM ratio (pull-down/input)"},
      {"sequence": "GATGATTGTTCTCCCAGCTGATGAATTCGTTTTGTCGAGTAAACAAATTTTCCTAATCTTTCTGTTCAAGCGCCATCTAC", "binding signal": "0.978 RPM ratio (pull-down/input)"},
      {"sequence": "GATGATTGTTCTCCCAGCTGATGAATTGCGACAATCGAGTAAACAAATTTTCCTAATCTTTCTGTTCAAGCGCCATCTAC", "binding signal": "1.41 RPM ratio (pull-down/input)"},
      {"sequence": "GATGATTGTTCTCCCAGCTGATGAATTGCACAGCTCGAGTAAACAAATTTTCCTAATCTTTCTGTTCAAGCGCCATCTAC", "binding signal": "1.04 RPM ratio (pull-down/input)"},
      {"sequence": "GATGATTGTTCTCCCAGCTGATGAATTTATGTTTTCGAGTAAACAAATTTTCCTAATCTTTCTGTTCAAGCGCCATCTAC", "binding signal": "2.76 RPM ratio (pull-down/input)"},
      {"sequence": "GATGATTGTTCTCCCAGCTGATGAATTCATTCGATCGAGTAAACAAATTTTCCTAATCTTTCTGTTCAAGCGCCATCTAC", "binding signal": "0.894 RPM ratio (pull-down/input)"},
      {"sequence": "GATGATTGTTCTCCCAGCTGATGAATTCTGTTTGTCGAGTAAACAAATTTTCCTAATCTTTCTGTTCAAGCGCCATCTAC", "binding signal": "2.36 RPM ratio (pull-down/input)"},
      {"sequence": "GATGATTGTTCTCCCAGCTGATGAATTTCCGCCCTCGAGTAAACAAATTTTCCTAATCTTTCTGTTCAAGCGCCATCTAC", "binding signal": "0.812 RPM ratio (pull-down/input)"},
      {"sequence": "GATGATTGTTCTCCCAGCTGATGAATTGTTAGCTTCGAGTAAACAAATTTTCCTAATCTTTCTGTTCAAGCGCCATCTAC", "binding signal": "1.18 RPM ratio (pull-down/input)"},
      {"sequence": "GATGATTGTTCTCCCAGCTGATGAATTTTCTATGTCGAGTAAACAAATTTTCCTAATCTTTCTGTTCAAGCGCCATCTAC", "binding signal": "0.967 RPM ratio (pull-down/input)"},
      {"sequence": "GATGATTGTTCTCCCAGCTGATGAATTCACCTCGTCGAGTAAACAAATTTTCCTAATCTTTCTGTTCAAGCGCCATCTAC", "binding signal": "0.754 RPM ratio (pull-down/input)"},
      {"sequence": "GATGATTGTTCTCCCAGCTGATGAATTATGCCAGTCGAGTAAACAAATTTTCCTAATCTTTCTGTTCAAGCGCCATCTAC", "binding signal": "0.982 RPM ratio (pull-down/input)"},
      {"sequence": "GATGATTGTTCTCCCAGCTGATGAATTCCTCACTTCGAGTAAACAAATTTTCCTAATCTTTCTGTTCAAGCGCCATCTAC", "binding signal": "0.836 RPM ratio (pull-down/input)"},
      {"sequence": "GATGATTGTTCTCCCAGCTGATGAATTATTGCGGTCGAGTAAACAAATTTTCCTAATCTTTCTGTTCAAGCGCCATCTAC", "binding signal": "1.08 RPM ratio (pull-down/input)"},
      {"sequence": "GATGATTGTTCTCCCAGCTGATGAATTGTCAACATCGAGTAAACAAATTTTCCTAATCTTTCTGTTCAAGCGCCATCTAC", "binding signal": "2.76 RPM ratio (pull-down/input)"},
      {"sequence": "GATGATTGTTCTCCCAGCTGATGAATTGGTTCCATCGAGTAAACAAATTTTCCTAATCTTTCTGTTCAAGCGCCATCTAC", "binding signal": "0.944 RPM ratio (pull-down/input)"},
      {"sequence": "GATGATTGTTCTCCCAGCTGATGAATTCTAATCTTCGAGTAAACAAATTTTCCTAATCTTTCTGTTCAAGCGCCATCTAC", "binding signal": "0.849 RPM ratio (pull-down/input)"},
      {"sequence": "GATGATTGTTCTCCCAGCTGATGAATTGGAATTCTCGAGTAAACAAATTTTCCTAATCTTTCTGTTCAAGCGCCATCTAC", "binding signal": "0.865 RPM ratio (pull-down/input)"},
      {"sequence": "GATGATTGTTCTCCCAGCTGATGAATTTCGTACGTCGAGTAAACAAATTTTCCTAATCTTTCTGTTCAAGCGCCATCTAC", "binding signal": "0.915 RPM ratio (pull-down/input)"},
      {"sequence": "GATGATTGTTCTCCCAGCTGATGAATTCATTCCGTCGAGTAAACAAATTTTCCTAATCTTTCTGTTCAAGCGCCATCTAC", "binding signal": "0.844 RPM ratio (pull-down/input)"},
      {"sequence": "GATGATTGTTCTCCCAGCTGATGAATTCTGGGTGTCGAGTAAACAAATTTTCCTAATCTTTCTGTTCAAGCGCCATCTAC", "binding signal": "0.785 RPM ratio (pull-down/input)"},
      {"sequence": "GATGATTGTTCTCCCAGCTGATGAATTCCCAACCTCGAGTAAACAAATTTTCCTAATCTTTCTGTTCAAGCGCCATCTAC", "binding signal": "0.775 RPM ratio (pull-down/input)"},
      {"sequence": "GATGATTGTTCTCCCAGCTGATGAATTTATTATTTCGAGTAAACAAATTTTCCTAATCTTTCTGTTCAAGCGCCATCTAC", "binding signal": "1.6 RPM ratio (pull-down/input)"},
      {"sequence": "GATGATTGTTCTCCCAGCTGATGAATTACGTAGATCGAGTAAACAAATTTTCCTAATCTTTCTGTTCAAGCGCCATCTAC", "binding signal": "1.05 RPM ratio (pull-down/input)"},
      {"sequence": "GATGATTGTTCTCCCAGCTGATGAATTTAACCGGTCGAGTAAACAAATTTTCCTAATCTTTCTGTTCAAGCGCCATCTAC", "binding signal": "0.765 RPM ratio (pull-down/input)"},
      {"sequence": "GATGATTGTTCTCCCAGCTGATGAATTAGAAGACTCGAGTAAACAAATTTTCCTAATCTTTCTGTTCAAGCGCCATCTAC", "binding signal": "0.894 RPM ratio (pull-down/input)"},
      {"sequence": "GATGATTGTTCTCCCAGCTGATGAATTCATGCCATCGAGTAAACAAATTTTCCTAATCTTTCTGTTCAAGCGCCATCTAC", "binding signal": "0.991 RPM ratio (pull-down/input)"},
      {"sequence": "GATGATTGTTCTCCCAGCTGATGAATTCCGGCTATCGAGTAAACAAATTTTCCTAATCTTTCTGTTCAAGCGCCATCTAC", "binding signal": "0.843 RPM ratio (pull-down/input)"},
      {"sequence": "GATGATTGTTCTCCCAGCTGATGAATTAAACTAATCGAGTAAACAAATTTTCCTAATCTTTCTGTTCAAGCGCCATCTAC", "binding signal": "1.09 RPM ratio (pull-down/input)"},
      {"sequence": "GATGATTGTTCTCCCAGCTGATGAATTACTCCAATCGAGTAAACAAATTTTCCTAATCTTTCTGTTCAAGCGCCATCTAC", "binding signal": "1.1 RPM ratio (pull-down/input)"},
      {"sequence": "GATGATTGTTCTCCCAGCTGATGAATTGATCTATTCGAGTAAACAAATTTTCCTAATCTTTCTGTTCAAGCGCCATCTAC", "binding signal": "1.15 RPM ratio (pull-down/input)"}
    ]}
  ]
}
